Reference: article PMC4336329 (PLoS ONE, 2015)
Hit rate of the full screen: of about 310,000 compounds, about 14,000 (4.5%) showed an effect of 50% or more. Effects have a minus sign here. This is one part of the list.
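Further: peak tail current of the secondary pulse compared with the same well before compound.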

Each compound was assayed against human ether-à-go-go-related gene (hERG) potassium channel (human, UniProt Q12809) (assay: primary screen, population patch clamp on CHO cells stably expressing hERG).
human ether-à-go-go-related gene (hERG) potassium channel, sequence (Q12809 whole entry, looked up): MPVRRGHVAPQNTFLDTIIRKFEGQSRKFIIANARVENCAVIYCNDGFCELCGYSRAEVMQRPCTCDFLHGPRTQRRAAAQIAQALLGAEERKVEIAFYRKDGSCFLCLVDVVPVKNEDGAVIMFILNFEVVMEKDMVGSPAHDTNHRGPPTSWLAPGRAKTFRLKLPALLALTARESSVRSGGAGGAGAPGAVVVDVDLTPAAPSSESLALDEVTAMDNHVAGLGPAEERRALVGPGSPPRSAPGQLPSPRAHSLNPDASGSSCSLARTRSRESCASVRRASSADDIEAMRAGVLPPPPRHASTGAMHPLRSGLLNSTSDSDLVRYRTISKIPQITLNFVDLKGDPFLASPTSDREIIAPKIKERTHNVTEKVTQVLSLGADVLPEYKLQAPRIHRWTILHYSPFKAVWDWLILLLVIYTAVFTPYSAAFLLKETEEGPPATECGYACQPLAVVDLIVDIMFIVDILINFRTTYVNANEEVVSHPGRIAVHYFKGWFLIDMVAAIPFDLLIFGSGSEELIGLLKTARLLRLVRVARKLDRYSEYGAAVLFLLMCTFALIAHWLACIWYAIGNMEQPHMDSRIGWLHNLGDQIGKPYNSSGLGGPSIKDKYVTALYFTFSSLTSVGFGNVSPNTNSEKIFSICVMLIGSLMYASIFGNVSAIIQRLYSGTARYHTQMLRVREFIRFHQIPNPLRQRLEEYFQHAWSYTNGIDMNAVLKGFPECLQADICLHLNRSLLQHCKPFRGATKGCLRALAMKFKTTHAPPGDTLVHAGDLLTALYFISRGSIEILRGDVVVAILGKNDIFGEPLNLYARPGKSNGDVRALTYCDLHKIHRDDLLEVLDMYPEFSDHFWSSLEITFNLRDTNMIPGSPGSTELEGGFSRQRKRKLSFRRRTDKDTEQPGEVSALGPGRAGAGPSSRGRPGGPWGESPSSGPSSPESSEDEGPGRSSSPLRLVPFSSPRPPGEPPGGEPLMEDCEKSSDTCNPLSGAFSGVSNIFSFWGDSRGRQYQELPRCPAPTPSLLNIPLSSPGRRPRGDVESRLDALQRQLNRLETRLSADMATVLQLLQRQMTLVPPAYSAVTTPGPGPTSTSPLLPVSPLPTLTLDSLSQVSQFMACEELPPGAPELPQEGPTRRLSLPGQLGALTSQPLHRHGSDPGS
In the case of Cc1ccc(NC(=S)N2CCC(NC(=O)C3CCCCC3)CC2)cc1C, the “hERG current change (%, negative = inhibition) at 10uM” value is reported as 11.5%.
With Cc1ccc(C)c(S(=O)(=O)n2cnc3ccccc32)c1 the “hERG current change (%, negative = inhibition) at 10uM” value was 8.17%.
With COC(=O)c1ccc2nc(C)c(C)nc2c1 the “hERG current change (%, negative = inhibition) at 10uM” value was 15.8%.
In the case of CCN(CC)C(=O)N1CCN(C(=O)c2ccc(C)cn2)CC1, the “hERG current change (%, negative = inhibition) at 10uM” value is reported as 14%.
For CCOCCCNC(=O)CCS(=O)(=O)Cc1ccc(C)cc1, the “hERG current change (%, negative = inhibition) at 10uM” value was -7.5%.
With CC(C)(C)OC(=O)NC(CCCCNC=O)C(=O)O (centres unmarked) the “hERG current change (%, negative = inhibition) at 10uM” value was 2.93%.
In the case of O=C(O)CCCCCNC(=O)c1ccc(Br)cc1, the “hERG current change (%, negative = inhibition) at 10uM” value is reported as 8.41%.
With COc1ccc(Nc2ncnc3sc(-c4ccccc4)cc23)cc1OC the “hERG current change (%, negative = inhibition) at 10uM” value was -1.28%.
In the case of CC(=O)N(C1=NCCCS1)c1ccc(F)cc1, the “hERG current change (%, negative = inhibition) at 10uM” value is reported as -16.7%.
For O=C(Nc1cccc(Cl)c1)c1cc(-c2ccco2)on1, the “hERG current change (%, negative = inhibition) at 10uM” value was 4.82%.
In the case of COc1cc(CC(=O)OCC(=O)NC2CCCCC2)cc(OC)c1OC, the “hERG current change (%, negative = inhibition) at 10uM” value is reported as 6.66%.
With O=C(/C=C/c1cc2ccccc2o1)c1ccccc1O the “hERG current change (%, negative = inhibition) at 10uM” value was 20.9%.
With COc1ccc(OCCCn2ccnc2)cc1.Cl the “hERG current change (%, negative = inhibition) at 10uM” value was 34.4%.
In the case of COc1ccc(N2CCN(C(=O)c3cccc(F)c3)CC2)c([N+](=O)[O-])c1, the “hERG current change (%, negative = inhibition) at 10uM” value is reported as -73.2%.
With COC(=O)C1=C2c3[nH]c4ccccc4c3CCN2C(=O)CC1 the “hERG current change (%, negative = inhibition) at 10uM” value was -23.1%.
With CCOc1ccc(NC(=O)NCCN2CCN(c3cccc(C)c3C)CC2)cc1 the “hERG current change (%, negative = inhibition) at 10uM” value was -24.3%.
In the case of COc1cc(C(=O)NC2CC3CCCC(C2)N3C2CC2)cc(OC)c1OC (centres unmarked), the “hERG current change (%, negative = inhibition) at 10uM” value is reported as 29.4%.
For O=Cc1c(F)cccc1N1CCCC1, the “hERG current change (%, negative = inhibition) at 10uM” value was 13.5%.
Cc1ccc(S(=O)(=O)N2CCCCC2)cc1NC(=O)COC(=O)C1=COCCO1 was tested, and the “hERG current change (%, negative = inhibition) at 10uM” value was 7.79%.
With Cc1ccc(NC(=O)CCC(=O)NNC(=O)NC2CCCCC2)c(C)c1 the “hERG current change (%, negative = inhibition) at 10uM” value was 1.46%.
With CCOC(=O)C[C@H]1c2cc(F)ccc2S(=O)(=O)N1Cc1ccc(OC)cc1 the “hERG current change (%, negative = inhibition) at 10uM” value was -11.1%.
With O=C(CSC1CC(=O)N(CCc2ccccc2)C1=O)Nc1ccc(Cl)cc1 (centres unmarked) the “hERG current change (%, negative = inhibition) at 10uM” value was -8.55%.
With O=C(c1cc(COc2c(F)cccc2F)on1)N1CCc2ccccc2C1 the “hERG current change (%, negative = inhibition) at 10uM” value was -10.7%.
With CCC1(c2ccccc2)NC(=O)N(CC(=O)Nc2cc(S(=O)(=O)N3CCCCC3)ccc2OC(C)C)C1=O (centres unmarked) the “hERG current change (%, negative = inhibition) at 10uM” value was -5.02%.
With COc1ccccc1NC(=O)c1c(C)nn(-c2ccccc2)c1Cl the “hERG current change (%, negative = inhibition) at 10uM” value was 3.6%.
O=C(NCCS(=O)(=O)NCCCc1ccccc1)c1ccccc1 was tested, and the “hERG current change (%, negative = inhibition) at 10uM” value was 5.62%.
For CCCCN1Cc2c(nc3cc(-c4ccco4)[nH]n3c2=O)C1=O, the “hERG current change (%, negative = inhibition) at 10uM” value was 3.54%.
In the case of Cc1cc(C(=O)N/N=C/C(Cl)=C/c2ccccc2)c(C)o1, the “hERG current change (%, negative = inhibition) at 10uM” value is reported as 24.7%.
With O=C(NC(=S)Nc1ccccn1)c1cccc([N+](=O)[O-])c1 the “hERG current change (%, negative = inhibition) at 10uM” value was -12.8%.
With CCOC(=O)c1cnc2ccc(OC)cc2c1Nc1ccc2c(c1)OCCO2 the “hERG current change (%, negative = inhibition) at 10uM” value was 1.43%.
O=C(Nc1ccnn1C1CCN(C(=O)CCc2ccc(F)cc2)CC1)C1CCOC1 (centres unmarked) was tested, and the “hERG current change (%, negative = inhibition) at 10uM” value was -20.8%.
In the case of COc1ccc(CN(Cc2ccc(OC)cc2)C(=O)c2cccs2)cc1, the “hERG current change (%, negative = inhibition) at 10uM” value is reported as -15.8%.
With CC(=O)c1sc2nc(C)c3c(c2c1N)CCCC3 the “hERG current change (%, negative = inhibition) at 10uM” value was -2.21%.
For CCSc1nnc(NC(=O)NC2CCCCC2)s1, the “hERG current change (%, negative = inhibition) at 10uM” value was 0.633%.
O=C(NCCCN1CCCC1=O)Nc1ccc(F)c(Cl)c1 was tested, and the “hERG current change (%, negative = inhibition) at 10uM” value was -1.92%.
With Oc1ccc(N=Nc2n[nH]c(-c3ccc(Br)cc3)n2)cc1 the “hERG current change (%, negative = inhibition) at 10uM” value was 1.41%.
In the case of O=C(CC(c1ccccc1)c1ccccc1O)NCc1ccccc1 (centres unmarked), the “hERG current change (%, negative = inhibition) at 10uM” value is reported as 1.01%.
For O=C(COc1ccc(Cl)cc1)NCc1nnc(SCC(=O)NC2CCCC2)o1, the “hERG current change (%, negative = inhibition) at 10uM” value was -21.8%.
In the case of O=C(c1ccccc1F)N1CCN(c2ccc([N+](=O)[O-])cc2-n2cccc2)CC1, the “hERG current change (%, negative = inhibition) at 10uM” value is reported as -23.1%.
In the case of COc1ccc(S(=O)(=O)NCC2CCCN(CC(C)(C)C)C2)cc1 (centres unmarked), the “hERG current change (%, negative = inhibition) at 10uM” value is reported as 14.9%.
In the case of CCc1ncc(/C=C2\C(=O)Nc3ccccc32)[nH]1, the “hERG current change (%, negative = inhibition) at 10uM” value is reported as 4.82%.
CC1(C)Cc2nc3oc4c(=S)nc[nH]c4c3cc2CO1 was tested, and the “hERG current change (%, negative = inhibition) at 10uM” value was 13.7%.
In the case of Cc1ccc(NC(=O)c2cnc(SCC(=O)NCC3CCCO3)n(C)c2=O)cc1 (centres unmarked), the “hERG current change (%, negative = inhibition) at 10uM” value is reported as -39.6%.
O=c1cc(N2CCCC2)[nH]c(=O)n1-c1ccc(Cl)cc1 was tested, and the “hERG current change (%, negative = inhibition) at 10uM” value was -6.02%.
CC(NC(=O)c1ccccc1)C(=O)OCC(=O)c1c(N)n(C)c(=O)n(C)c1=O (centres unmarked) was tested, and the “hERG current change (%, negative = inhibition) at 10uM” value was -14.1%.
With CC(NC(=O)c1cc(COc2cccc(C(F)(F)F)c2)on1)c1nccs1 (centres unmarked) the “hERG current change (%, negative = inhibition) at 10uM” value was -30.4%.
In the case of Cc1cccc(-c2ncc(CN3CCN(C4CCCC4)C(CCO)C3)cn2)c1 (centres unmarked), the “hERG current change (%, negative = inhibition) at 10uM” value is reported as -46.7%.
In the case of Br.c1ccc(-c2nc(CSc3nnnn3-c3ccccc3)cs2)cc1, the “hERG current change (%, negative = inhibition) at 10uM” value is reported as 4.24%.
For COc1ccc(CCN2CC(C(=O)N(C)CCn3nc(C)cc3C)CCC2=O)cc1 (centres unmarked), the “hERG current change (%, negative = inhibition) at 10uM” value was 8.4%.
With CC(CC(=O)Nc1ccc(F)c([N+](=O)[O-])c1)c1ccccc1 (centres unmarked) the “hERG current change (%, negative = inhibition) at 10uM” value was -9.38%.
CC(C)c1c(O)cc(-c2ccncc2)n(-c2ccc(Cl)cc2)c1=O was tested, and the “hERG current change (%, negative = inhibition) at 10uM” value was -24.7%.
For Cc1noc(C)c1C(=O)OCC(=O)c1cc(C)n(Cc2ccccc2Cl)c1C, the “hERG current change (%, negative = inhibition) at 10uM” value was -7.65%.
In the case of CN(C)CC(=O)N1c2ccccc2Sc2ccc(Cl)cc21.Cl, the “hERG current change (%, negative = inhibition) at 10uM” value is reported as -7.73%.
With Cc1ccc(OCCC(=O)OCC(=O)Nc2c(C)nn(-c3ccccc3)c2C)cc1 the “hERG current change (%, negative = inhibition) at 10uM” value was 3.91%.
In the case of COCCNC(=O)c1c[nH]n2c(=O)cc(C3CCN(C(=O)OC(C)(C)C)CC3)nc12, the “hERG current change (%, negative = inhibition) at 10uM” value is reported as 7.5%.
With Cc1noc(C)c1COC(=O)C1CCN(C(=O)c2ccc(Cl)cc2)CC1 the “hERG current change (%, negative = inhibition) at 10uM” value was -38%.
COc1cccc(-n2c(Cc3cc(=O)[nH]c(=O)[nH]3)nnc2SCc2cccnc2)c1 was tested, and the “hERG current change (%, negative = inhibition) at 10uM” value was 4%.
Cc1ccc(C(=O)CSc2nnc(C3CC3)n2C2CC2)s1 was tested, and the “hERG current change (%, negative = inhibition) at 10uM” value was -12.4%.
With O=C(Nc1nnc(S(=O)(=O)N2CCCCCC2)s1)c1ccccc1 the “hERG current change (%, negative = inhibition) at 10uM” value was 13.9%.
